Out of some 310,000 compounds screened, about 14,000 (4.5%) showed an effect of 50% or more. The effect is printed as a negative number. Some of the results follow.
target: human ether-à-go-go-related gene (hERG) potassium channel (human, UniProt Q12809); assay: primary screen, population patch clamp on CHO cells stably expressing hERG
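Note: peak tail current of the secondary pulse compared with the same well before compound.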

Sequence of human ether-à-go-go-related gene (hERG) potassium channel (Q12809 whole entry, looked up): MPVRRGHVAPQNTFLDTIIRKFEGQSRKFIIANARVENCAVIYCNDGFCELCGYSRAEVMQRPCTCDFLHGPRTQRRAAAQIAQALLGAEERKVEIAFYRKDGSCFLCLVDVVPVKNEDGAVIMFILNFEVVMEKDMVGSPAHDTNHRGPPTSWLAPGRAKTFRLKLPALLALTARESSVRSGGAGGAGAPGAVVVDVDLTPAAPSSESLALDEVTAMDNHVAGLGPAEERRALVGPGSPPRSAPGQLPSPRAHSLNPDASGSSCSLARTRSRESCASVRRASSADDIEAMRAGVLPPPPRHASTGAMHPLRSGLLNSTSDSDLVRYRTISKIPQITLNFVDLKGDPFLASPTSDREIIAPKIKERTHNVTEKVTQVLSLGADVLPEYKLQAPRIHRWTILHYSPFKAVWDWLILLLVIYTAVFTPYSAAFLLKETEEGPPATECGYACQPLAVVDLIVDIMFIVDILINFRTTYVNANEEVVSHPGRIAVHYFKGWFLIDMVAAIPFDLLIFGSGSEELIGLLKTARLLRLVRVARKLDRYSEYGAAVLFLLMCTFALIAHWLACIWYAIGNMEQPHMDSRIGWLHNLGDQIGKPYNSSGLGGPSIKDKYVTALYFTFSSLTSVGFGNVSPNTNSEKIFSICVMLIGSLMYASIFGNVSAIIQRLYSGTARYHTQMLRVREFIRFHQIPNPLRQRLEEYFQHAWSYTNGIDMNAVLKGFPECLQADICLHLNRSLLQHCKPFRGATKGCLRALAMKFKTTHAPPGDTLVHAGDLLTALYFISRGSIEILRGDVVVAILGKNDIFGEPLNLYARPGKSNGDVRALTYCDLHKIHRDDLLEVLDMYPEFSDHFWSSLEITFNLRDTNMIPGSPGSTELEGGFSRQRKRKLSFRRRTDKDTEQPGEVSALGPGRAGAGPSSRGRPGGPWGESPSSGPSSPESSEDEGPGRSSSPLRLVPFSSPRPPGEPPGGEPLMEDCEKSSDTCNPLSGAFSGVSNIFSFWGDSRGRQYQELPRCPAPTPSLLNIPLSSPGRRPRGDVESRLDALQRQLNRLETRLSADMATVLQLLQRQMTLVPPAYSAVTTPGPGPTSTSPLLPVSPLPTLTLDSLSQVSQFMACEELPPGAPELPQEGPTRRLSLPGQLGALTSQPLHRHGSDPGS

| Compound | hERG current change (%, negative = inhibition) at 10uM [%] |
| --- | --- |
| CC(C)Cn1c(N)c(C=O)c(=O)n(C)c1=O | 26.4 |
| Cc1ccc(NC(=O)CSc2nccn2Cc2ccccc2)cc1C | -17.4 |
| O=C(NCCN1CCOCC1)c1ccc(/C=C2\Sc3ccccc3N(Cc3ccc(F)cc3)C2=O)cc1 | 11 |
| O=C(CCCOc1ccc(Cl)cc1Cl)Nc1ccncc1 | -12.6 |
| CSc1nc2sc3c(c2c(=O)n1C)CCC3 | 10.8 |
| COc1ccc(S(=O)(=O)N(CC(=O)O)c2ccccn2)cc1 | 6.31 |
| CN1CCN(CC(=O)Nc2cc(N3CCOCC3)ccc2[N+](=O)[O-])CC1 | 33.8 |
| O=C(Oc1ccc(N(Cc2cccs2)C2=NS(=O)(=O)c3ccccc32)cc1)c1ccc(Cl)cc1 | -6.15 |
| CC(C)CN(C(=O)COC(=O)CCN1C(=O)c2ccccc2C1=O)C1CCS(=O)(=O)C1 (stereo not shown) | 11 |
| COc1ccc(NC(=O)CN(C)C(=O)c2ccc3c(c2)NC(=O)CS3)cc1 | -10.2 |
| O=C(NCCN1CCc2ccccc2C1)C1CCN(S(=O)(=O)N2CCCCC2)CC1 | -53.8 |
| CC1CN(C(=O)C2CC2)C(C)CN1C(=O)C1CC1 (stereo not shown) | -4.38 |
| COc1ccc(/C=N/NC(=O)CNC(=O)c2cccs2)cc1 | 5.84 |
| CN1C(=O)CS(=O)c2ccc(C(=O)NC3CC3)cc21 (stereo not shown) | 16.4 |
| CCOc1ncccc1C(=O)N1CCN(S(=O)(=O)c2cccs2)CC1 | 3.64 |
| CCN(CC)C(=O)N1CCC(NC(=O)Cc2ccccc2)CC1 | -8.93 |
| Cc1cc(C)c(C#N)c(SCc2ccc3c(c2)OCO3)n1 | 1.92 |
| COc1cccc(NC(=O)CSc2nc3ccccc3nc2N2CCCC2)c1 | -15.3 |
| CC1CN(C2=N/C(=C/c3ccc4c(c3)OCO4)C(=O)N2)CC(C)O1 (stereo not shown) | 3.07 |
| COc1ccccc1-c1cc(C(=O)Nc2sc3c(c2C#N)CCC(C)C3)c2ccccc2n1 (stereo not shown) | 10.5 |
| O=C(c1cnc2sccn2c1=O)N1CCCc2ccccc21 | 17.1 |
| COC(=O)c1c(NS(C)(=O)=O)sc2c1CCCC2 | 0.0367 |

| Compound | hERG current change (%, negative = inhibition) at 10uM [%] |
| --- | --- |
| CC(/C=C/c1ccccc1)=N\NC(=O)CNC(=O)c1ccccc1Cl | 7.15 |
| Cc1cc([N+](=O)[O-])nn1CCCC(=O)NCc1ccc(F)cc1 | -0.962 |
| CCn1nnnc1SCC(=O)NC1CCCC1 | 19.8 |
| CCOc1ccc(S(=O)(=O)Nc2cccc(OC)c2)cc1 | -25 |
| O=C(CCc1ccccc1)Nc1ccccc1 | -2.56 |
| COc1ccccc1OCCSc1nc2ccccc2c(=O)[nH]1 | -5.52 |
| CC(=O)Cc1nsc(NC(=O)c2ccc(-c3ccc(Cl)c(Cl)c3)o2)n1 | -0.558 |
| CC(=O)C1=C(C)Nc2ncnn2C1c1cccc(Br)c1 (stereo not shown) | -10.1 |
| CC(C)CCNC(=O)C(=O)NCC1OCCCN1S(=O)(=O)c1cccs1 (stereo not shown) | 1.45 |
| Cc1ccc(/C=C/C(=O)O)cc1S(=O)(=O)Nc1ccccc1C(=O)O | 22 |
| Cc1cccnc1CCNC(=O)CCc1nnc(-c2ccccc2)o1 | -4.37 |
| COc1ccc(OC)c(CNS(=O)(=O)c2cc(CN3C(=O)c4cccnc4C3=O)ccc2OC)c1 | -18.6 |
| COCCCNC(=O)CCc1c(C)nc2c(c(C)nn2-c2ccc(C)cc2)c1C | -7.71 |
| C=CCOC(=O)COc1cc(C)cc2oc(=O)c3c(c12)CCC3 | -44.1 |
| COc1ccc(OC)c(C(=O)CCCC(=O)c2cc(OC)ccc2OC)c1 | -1.53 |
| Nc1nncn1C(=O)CCCN1C(=O)c2ccccc2C1=O | 4.44 |
| CCOC(=O)c1nn(-c2ccc(Cl)cc2)c2nc(-c3ccc(C)cc3)c(C#N)c(=O)n12 | 4.89 |
| CC(=O)NN1C(=O)/C(=C2/Sc3ccccc3N2C)SC1=S | 19.8 |
| COC(=O)c1ccc(/C(O)=C(\C#N)c2nc3ccccc3s2)cc1 | 15.4 |
| CC(=O)Nc1ccc(N(C(=O)CNC(=O)c2ccco2)C(C(=O)NCc2ccco2)c2ccccc2)cc1 (stereo not shown) | 14.4 |
| CCOC(=O)c1sc(NC(=O)c2c(C)nn(Cc3ccccc3)c2C)cc1C | -4.1 |
